Data reported in PubChem BioAssay AID662 (National Center for Advancing Translational Sciences (NCATS), 2007).
In all, about 71,000 compounds went through this assay and about 1,800 (2.5%) were called active. This list was built around the results that the source calls inconclusive (neither active nor inactive); the mix of calls is not that of the screen. The call rests on the fitted dose curve; in most records, active means well fitted activation curve with a large enough effect in the signal ratio, with a control signal flat (not every such curve was filed as active); inconclusive means small, poorly fitted or top-dose-only effect, or effect the other way, or a change in a side signal; inactive means flat fitted curve, though single readings scatter; the % refers to the signal ratio. A potency beside an inconclusive call is a rough fit, not a confirmed value.
Potency means the concentration at half of the fitted maximal effect; tags describe the fitted curve by direction and shape.

Assay: Cell signaling CRE-BLA (Fsk stim); on activity change, negative = inhibition: % of control where 0% means no effect
Conditions: CHO CRE-bla reporter (cAMP response element driving beta-lactamase), forskolin EC10, beta-lactamase ratio; activity change, negative = inhibition: at 38.2 µM (top of the series) unless noted
How it was run: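 CHO CRE-bla cells, overnight plating in Opti-MEM with 0.5% dialyzed FBS; cpd titration + EC10 NKH 477, 3 h 37 °C; CCF4 2 h RT; ex 405/em 460 vs 530 ratio → %Activity, AC50.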
For `COCCNC(=O)CSc1nc2ccc(N3CCOCC3)cc2c(=O)n1CCc1ccccc1`, the activity change, negative = inhibition was inconclusive: 8.96%.
For `CC(C)(C)OC(=O)N[C@@H](Cc1ccccc1)c1nnc(SCC(=O)O)o1`, the “activity change, negative = inhibition” value was inactive: 0.814%.
For `CCOC(=O)c1sc(/N=C/Nc2nc(C)c(C(=O)OCC)s2)nc1C`, the activity change, negative = inhibition was inconclusive: 0.213%.
With `Cc1ccc2cc(CCNC(=O)C(C)(C)C)c(=O)[nH]c2c1` the activity change, negative = inhibition was inconclusive: 21.4%.
With `COc1ncc2nc(-c3ccc(F)cc3)c(=O)n(C)c2n1` the Potency was inconclusive: 3.98 µM [rising, partial curve].
For `N[C@@H](C(=O)O)[C@@H]1C[C@H]1C(=O)O`, the “activity change, negative = inhibition” value was inactive: 0.909%.
For `CC(=O)SC[C@@H](Cc1ccccc1)C(=O)NCC(=O)OCc1ccccc1`, the “activity change, negative = inhibition” value was inactive: -11.1% [at 17.1 µM].
With `COC(=O)[C@@]1(Cc2ccc(F)cc2)[C@H]2c3cc(C(=O)N(C)C)n(Cc4ccsc4Br)c3C[C@H]2CN1C(=O)c1ccccc1` the activity change, negative = inhibition was inconclusive: 25.4%.
In the case of `Cc1cc2ncn(C3CC(=O)N(Cc4ccc(N5CCCC5=O)cc4)C3=O)c2cc1C` (stereo not drawn), the “activity change, negative = inhibition” value is reported as inactive: 13.1%.
With `Cc1noc(C)c1-c1nccc(N2CCNCC2)n1` the activity change, negative = inhibition was inconclusive: 25.3%.
In the case of `COC(=O)c1ccc(C(NC(=O)c2ccco2)[C@]2(C)C[C@H]2C2CCCCC2)cc1` (stereo partly drawn), the Potency is reported as inconclusive: 5.01 µM [falling, single point].
For `CCN1CCN(c2nc3sc4c(c3c3ncnn23)CC(C)CC4)CC1` (stereo not drawn), the Potency was inconclusive: 10 µM [rising, partial curve].
In the case of `O=C(NCCCN1CCOCC1)C1CC(=O)N(C2CCCCC2)C1` (stereo not drawn), the “activity change, negative = inhibition” value is reported as inactive: -4.13%.
With `CC(C)NC(=O)N1CC2(CCN(C(=O)c3cccn3C)CC2)C1` the “activity change, negative = inhibition” value was inactive: 1.86%.
For `CCOC(=O)c1cc(=O)cc(C(=O)OCC)o1`, the “activity change, negative = inhibition” value was inactive: 3.17%.
With `CCOC(=O)c1nn(-c2c(C)n(C)n(-c3ccccc3)c2=O)cc1O` the Potency was inconclusive: 25.1 µM [falling, single point].
In the case of `O=C(OCC(=O)N1CCN(c2ccccc2)CC1)c1ccc2ncsc2c1`, the activity change, negative = inhibition is reported as inconclusive: 6%.
With `O=c1ccnc(SCc2ccccc2Cl)[nH]1` the activity change, negative = inhibition was inconclusive: 2.4%.
With `CC(=O)c1c(COC(=O)c2cccnc2)nc2ccccc2[n+]1[O-]` the activity change, negative = inhibition was inconclusive: 18.8%.
For `O=C1Oc2ccccc2C(=O)/C1=C\N1C(=O)N/C(=C\c2ccccc2O)C1=O`, the activity change, negative = inhibition was inactive: -5.15% [at 7.6 µM].
With `COc1ccc(OC)c(C2=C[N+](=O)C(C)(C)C(C)(C)N2[O-])c1` the “activity change, negative = inhibition” value was inactive: 3.06%.
With `CCCCCn1c(=O)[nH]c2c(c1=O)CCC2` the activity change, negative = inhibition was inconclusive: 12.1%.
With `O=c1c(-c2ccc(Cl)cc2)nc2cnc(Nc3ccccc3)nc2n1C[C@H]1CCCO1` the Potency was inconclusive: 3.16 µM [rising, partial curve].
With `Cc1nn(C)c(C)c1S(=O)(=O)N1CCCC(C(=O)N2CCN(c3ccccc3)CC2)C1` (stereo not drawn) the “activity change, negative = inhibition” value was inactive: -4.96%.
For `Cc1csc(NC(=O)c2cc3c(s2)CCC3)n1`, the Potency was inconclusive: 5.01 µM [falling, single point].
With `CN(C)/C=C1/C(=O)Nc2ccccc21` the Potency was inconclusive: 0.02 µM [rising, full curve].
In the case of `CC(=O)N(O)CCCCCNC(=O)CCC(=O)N(O)CCCCCNC(=O)CCC(=O)N(O)CCCCCN`, the “activity change, negative = inhibition” value is reported as inactive: -0.733% [at 17.1 µM].
For `CCCc1cc(=O)[nH]c(SCC(=O)N(CC(C)C)C2CCS(=O)(=O)C2)n1` (stereo not drawn), the “activity change, negative = inhibition” value was inactive: -2.1%.
With `COc1ccc(-c2nnc3ccc(SC(C(C)=O)C(C)=O)nn23)cc1OC` the Potency was active: 6.31 µM.
In the case of `COC(=O)c1cc(=O)nc2sc(-c3cccs3)nn12`, the “activity change, negative = inhibition” value is reported as inactive: -20.6%.
With `CCn1c(-c2ccc(N(C)C)cc2)nc2ccccc21` the activity change, negative = inhibition was inconclusive: 12.3%.
In the case of `Cc1cc2ccccc2c(=O)n1CC(=O)NCC(=O)N1CCN(c2cccc(Cl)c2)CC1`, the activity change, negative = inhibition is reported as inconclusive: 1.17%.
With `O=S(=O)(c1ccc2c(c1)OCCO2)N1CCN(c2cccc(Cl)c2)CC1` the activity change, negative = inhibition was inconclusive: 26.5% [cytotoxic].
For `Cc1sc(NC(=O)c2ccco2)nc1-c1ccc2c(c1)CC(C)N2C(=O)C1CC1` (stereo not drawn), the activity change, negative = inhibition was inconclusive: -23.3%.
For `NCCSC[C@H](N)C(=O)O`, the activity change, negative = inhibition was inactive: 6.13% [at 7.6 µM].
With `CCCn1cc(C(CC(=O)O)C(=O)O)c2ccccc21` (stereo not drawn) the activity change, negative = inhibition was inconclusive: 2.11%.
In the case of `O=C(NCc1ccco1)C1CC(=O)N(c2ccc(F)cc2)C1` (stereo not drawn), the “activity change, negative = inhibition” value is reported as inactive: -1.4%.
For `O=C(CSc1nnnn1C1CCCC1)c1ccc2c(c1)OCCO2`, the activity change, negative = inhibition was inconclusive: -7.16%.
With `O=S(=O)(c1cccc2cnccc12)N1CCNCC1` the Potency was inconclusive: 15.8 µM [falling, partial curve, poor fit].
With `OC[C@H]1O[C@@H]2O[C@H]3[C@H](O)[C@@H](O)[C@@H](O[C@H]4[C@H](O)[C@@H](O)[C@@H](O[C@H]5[C@H](O)[C@@H](O)[C@@H](O[C@H]6[C@H](O)[C@@H](O)[C@@H](O[C@H]7[C@H](O)[C@@H](O)[C@@H](O[C@H]8[C@H](O)[C@@H](O)[C@@H](O[C@H]1[C@H](O)[C@H]2O)O[C@@H]8CO)O[C@@H]7CO)O[C@@H]6CO)O[C@@H]5CO)O[C@@H]4CO)O[C@@H]3CO` the “activity change, negative = inhibition” value was inactive: -3.57%.
With `Cc1ccc(-c2nc(-c3ccccc3)no2)c(Cl)c1` the “activity change, negative = inhibition” value was inactive: 3.31%.
In the case of `C[N+]1(C)CCC[C@H]1C(=O)[O-]`, the “activity change, negative = inhibition” value is reported as inactive: -10.7% [at 17.1 µM].
For `CC1CCCC(C)N1CCNC(=O)CCn1nc(-c2ccccc2)ccc1=O` (stereo not drawn), the “activity change, negative = inhibition” value was inactive: -10%.
